Assay results reported in paper PMC4336329 (PLoS ONE, 2015).
In all, about 310,000 compounds went through this assay and about 14,000 (4.5%) showed an effect of 50% or more. Effects have a minus sign here. The list shows a part of the results.

Biological target: human ether-à-go-go-related gene (hERG) potassium channel (human, UniProt Q12809)
Assay: primary screen, population patch clamp on CHO cells stably expressing hERG
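Note: peak tail current of the secondary pulse compared with the same well before compound.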

human ether-à-go-go-related gene (hERG) potassium channel, sequence (Q12809 whole entry, looked up): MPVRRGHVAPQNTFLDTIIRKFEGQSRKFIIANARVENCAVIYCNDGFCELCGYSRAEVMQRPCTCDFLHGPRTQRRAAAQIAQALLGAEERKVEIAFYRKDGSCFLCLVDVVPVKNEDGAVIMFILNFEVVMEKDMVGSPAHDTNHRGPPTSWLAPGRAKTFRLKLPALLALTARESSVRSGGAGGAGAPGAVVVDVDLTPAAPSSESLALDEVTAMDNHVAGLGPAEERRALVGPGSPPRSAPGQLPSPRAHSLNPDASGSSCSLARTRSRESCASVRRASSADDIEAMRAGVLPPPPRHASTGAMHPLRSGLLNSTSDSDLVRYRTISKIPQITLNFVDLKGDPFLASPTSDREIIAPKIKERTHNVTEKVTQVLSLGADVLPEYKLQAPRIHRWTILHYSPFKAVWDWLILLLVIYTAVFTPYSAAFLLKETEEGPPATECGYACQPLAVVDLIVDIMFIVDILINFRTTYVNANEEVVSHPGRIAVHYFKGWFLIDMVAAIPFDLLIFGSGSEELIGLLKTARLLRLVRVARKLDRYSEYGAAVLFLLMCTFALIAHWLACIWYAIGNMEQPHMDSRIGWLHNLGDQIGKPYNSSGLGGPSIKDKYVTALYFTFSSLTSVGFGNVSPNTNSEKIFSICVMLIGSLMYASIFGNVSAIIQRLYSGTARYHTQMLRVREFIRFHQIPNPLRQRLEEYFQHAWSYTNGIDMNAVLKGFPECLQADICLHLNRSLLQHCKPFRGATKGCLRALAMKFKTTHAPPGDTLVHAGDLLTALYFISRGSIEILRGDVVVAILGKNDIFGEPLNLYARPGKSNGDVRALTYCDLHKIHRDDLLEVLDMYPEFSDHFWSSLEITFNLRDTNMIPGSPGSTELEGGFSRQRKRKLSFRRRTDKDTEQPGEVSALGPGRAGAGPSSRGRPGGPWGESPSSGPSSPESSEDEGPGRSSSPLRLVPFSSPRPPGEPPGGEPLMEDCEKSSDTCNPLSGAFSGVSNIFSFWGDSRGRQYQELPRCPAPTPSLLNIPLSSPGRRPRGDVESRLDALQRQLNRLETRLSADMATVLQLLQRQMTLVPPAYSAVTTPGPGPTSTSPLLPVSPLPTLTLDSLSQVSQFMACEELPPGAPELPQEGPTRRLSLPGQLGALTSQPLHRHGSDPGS

| Structure (SMILES) | hERG current change (%, negative = inhibition) at 10uM |
| --- | --- |
| CCOC(=O)C1CCN(S(=O)(=O)c2ccc3c(c2)NC(=O)CS3)CC1 | -22.4% |
| O=C1N(CN2CCN(c3cccc(Cl)c3)CC2)c2ccccc2C12OCCCO2 | -0.924% |
| Cc1cc(C(F)(F)F)nn1CC(=O)Nc1cccnc1 | 13.3% |
| CCC1(C)Cc2ccccc2C(Nc2c(C)n(C)n(-c3ccccc3)c2=O)=N1 (centres unmarked) | 6% |
| COc1ccc(C(=O)CSC2=C(C#N)C3(CCCCC3)C(C#N)=C(N)N2)cc1 | -5.36% |
| COC(=O)CCC(=O)NC(=S)Nc1cc(Cl)ccc1Cl | 10.5% |
| COc1ccc(C(=O)C2CCCN(Cc3ccc4nonc4c3)C2)cc1OC (centres unmarked) | -67.4% |
| COc1ccccc1NS(=O)(=O)c1cc2c(cc1C)NC(=O)CO2 | -7.43% |
| CCOC(=O)C1=C(COC(=O)Cc2ccc(Cl)cc2)NC(=O)NC1C (centres unmarked) | -32.7% |
| O=C(/C=C/c1ccc([N+](=O)[O-])cc1)NCCc1ccc(F)cc1 | -60.3% |
| CCn1c(CSc2nnc(-c3ccncc3)n2CCOC)nc2cc(C(=O)O)ccc21 | 4.99% |
| C1=C(CCNc2ncnc3c2cnn3-c2ccccc2)CCCC1 | 8.79% |
| CC1CCN(C(=O)c2[nH]cnc2C(=O)N2CCN(C(=O)OC(C)(C)C)CC2)CC1 | 19% |
| Cc1ccc(NC(=O)c2ccc3ccccc3n2)cc1S(=O)(=O)N1CCOCC1 | 12.9% |
| COc1ccc(C(=O)/C=C/Nc2ccc([N+](=O)[O-])cc2C)c(OC)c1 | 3.07% |
| Cc1cc2c(cc1S(=O)(=O)N1CCCC1)n(C)c(=O)c(=O)n2C | -4.62% |
| COC(=O)c1c(NC(=O)C(Cl)Cl)sc2c1C(C(=O)OC)CC2 (centres unmarked) | -0.381% |
| COc1ccc(N(CC(=O)Nc2cccc(SC)c2)S(C)(=O)=O)cc1 | -12.5% |
| Cc1cc(NC(=O)C23CC4CC(C2)CC(n2cnc([N+](=O)[O-])n2)(C4)C3)no1 | -32.4% |
| CCOP(=O)(c1ccc(N(C)C)cc1)C(O)c1ccccc1 (centres unmarked) | 10.3% |

| Structure (SMILES) | hERG current change (%, negative = inhibition) at 10uM |
| --- | --- |
| CCOc1ccc(C(=O)Nc2ccccc2N2CCOCC2)cc1 | -5.52% |
| Nc1nc(Cl)cc(N2CCCC2)n1 | -3.85% |
| COc1ccccc1CN1CCNC(=O)C1CC(=O)NCCc1cnccn1 (centres unmarked) | 16% |
| CCOc1ccc2nc(NS(=O)(=O)c3ccc4c(c3)n(C)c(=O)n4C)sc2c1 | 18.5% |
| COc1ccc(Nc2ncc3c(n2)CC(c2ccccc2)CC3=O)cc1 (centres unmarked) | -29.6% |
| COC(=O)CCSC(=S)N1CCOCC1 | 7.23% |
| COCCC1CCCCN1C(=O)c1ccc(OC)c(OC2CCN(C(C)=O)CC2)c1 (centres unmarked) | 6.34% |
| Cc1nn(C/C(C#N)=N\O)c(C)[n+]1N.[Cl-] | 14.2% |
| CCSc1nc2c(c(=O)[nH]c(=O)n2C)n1Cc1ccc(Cl)cc1 | -2.15% |
| COC(=O)CSC1=C(C#N)C(c2sccc2C)CC(=O)N1 (centres unmarked) | -0.133% |
| C=C(C)Cn1c(SCC(=O)NCc2ccco2)nc2sc3c(c2c1=O)CCC3 | -3.97% |
| Cc1cc(O)ccc1-c1cnc2ccccc2n1 | 2.9% |
| CCOC(=O)C1(Cc2ccccc2)CCN(Cc2cccn2-c2nccs2)CC1 | -82% |
| COc1ccccc1OCCNC(=O)/C=C/c1ccc([N+](=O)[O-])cc1 | -49.2% |
| Cn1cc(/C=C(\C#N)C(=O)Nc2ncc(Cc3cccc(Cl)c3)s2)c2ccccc21 | 3.31% |
| COc1cccc(OC)c1OCCCCc1c(C)n[nH]c1C.Cl | -10.7% |
| O=C(CCC1CCCCC1)NCc1cccnc1 | 4.37% |
| CC[N+](CC)(CC)CC.[Cl-] | 0.107% |
| Cc1cc(C(=O)N/N=C/c2ccc(-c3cccc([N+](=O)[O-])c3)o2)n[nH]1 | 5.63% |
| COc1cccc(/C=N/NC(=O)c2ccc(=O)n(C)c2)c1O | 16.6% |

| Structure (SMILES) | hERG current change (%, negative = inhibition) at 10uM |
| --- | --- |
| C=CCn1c(SCC(=O)c2cccs2)nc2sc(C)c(C)c2c1=O | 3.1% |
| COc1ccc(-c2ccc(-c3noc(C(C)C)n3)c(OC)n2)cc1 | 9.26% |
| CCOC(=O)C1(CC2CCCCO2)CCN(S(=O)(=O)c2ccsc2)CC1 (centres unmarked) | -14.4% |
| Cc1cccc(C(=O)O/N=C2/CC3CCC2(C)C3(C)C)c1 (centres unmarked) | -11% |
| O=C(NN1C(=O)c2ccccc2C1=O)C1CC2CCC1C2 (centres unmarked) | 11.5% |
| CSCc1ccc(C(=O)N2CCC(CCC(=O)N(C)Cc3ccccc3)CC2)o1 | -50.7% |
| COc1cccc(-c2cc3nc4c(c(N5CCC6(CC5)OCCO6)n3n2)CCCC4)c1 | 5.22% |
| CC(=O)Nc1ccc(N2C(=O)CSC2c2cccc([N+](=O)[O-])c2)cc1 (centres unmarked) | 15.6% |
| CCOc1ccccc1N1CCN(S(=O)(=O)c2ccc(Cl)s2)CC1 | 3.83% |
| CN1CCN(/N=C/c2ccc(-c3ccc([N+](=O)[O-])cc3)o2)CC1 | -66% |
| Cc1ccc2nc(-c3ccccn3)c(Nc3ccccc3C)n2c1 | -15.7% |
| C=CCOc1c(CNc2nccs2)cccc1OCC | 3.58% |
| Cc1cccc(Oc2ncnc3onc(C)c23)c1 | 1.17% |
| COCCCNC(=O)CSc1ccc(Cl)cc1 | 2.32% |
| COc1ccccc1C(=O)OCC(=O)NC(C)CCc1ccccc1 (centres unmarked) | -1.84% |
| COc1ccccc1N(C)S(=O)(=O)c1ccc(C(=O)OCC(=O)NCc2cccs2)cc1 | 5.35% |
| COc1ccc(OC)c2nc(-c3ccc4c(c3)OCO4)ccc12 | 10.4% |
| CC1(C)SC(=S)N(Cc2ccc3c(c2)OCO3)C1N(O)C(=O)NC1CCCCC1 (centres unmarked) | 10.4% |
| CCOC(=O)c1c(-c2cccc(C)c2)csc1NC(=O)C1CC=CCC1C(=O)O (centres unmarked) | -20.9% |
